From the RNAGym collection of RNA variant scans (doi:10.7554/elife.90254) come the findings set out here.

Read counts are not given, so values of variants with three or more changes are uncertain.

Sequences and labels used below:
B1: LINE1-full (parent)
chain: UACGUAGGUGGUUUUCCCCUGAUAGUGCUAAGGGGGCCUGGAAGUUUGGACUGGGCAGAGCUCAACACAGCGUGGCAAAGUGGCUGUGGCUAGACUGCCUCUCUGGAUUCCUCGUCACUCAGCAGGGCAUCUCUGAGAGAAAUGCC

In the data set the parent is B1. In words: self-cleavage, relative activity (ratio to wild type); higher = more cleavage; in vitro, sequencing; the parent is a self-cleaving ribozyme.
Turning to U13G A22G U109A, the self-cleavage worked out at 1.43.

As to U13C U14C U87A A129G, the self-cleavage amounted to 0.16.

In the case of U13C U47A U91A A117C G135A, the self-cleavage stood at 0.85.

As for U13C U73A U115A, the self-cleavage was found to be 1.22.

As for U13C U85C C111U, the self-cleavage is 0.21.

Regarding U13C U81C A124G, the self-cleavage was found to be 0.32.

Take U13C U15C A67U: the self-cleavage stood at 0.08.

For the variant U13C U20A A69U U81C, the self-cleavage is 0.08.

Consider U13C U87C U109A U143C, for which the self-cleavage amounted to 0.22.

On to U13C U52C U91C U134C, for which the self-cleavage came to 0.77.

As to U13C U15C C19U A121U, the self-cleavage is 0.73.

Consider U13C U52A A94G U143C, for which the self-cleavage came out at 0.63.

Turning to U13C U14C U20A A43G U62C C101U, the self-cleavage amounted to 0.

As to U13C U62C A92G, the self-cleavage amounted to 0.

On to U13C U14C A78G, for which the self-cleavage was found to be 0.66.

Regarding U13C U47C C51U U102C, the self-cleavage worked out at 2.36.

Turning to U13C U14C U26C G40U A64G, the self-cleavage turned out to be 0.

As to U13C U46C U85A A117C U119A, the self-cleavage turned out to be 0.31.

Take U13C U46A A77U U96A: the self-cleavage was 0.13.

For U13C U47A A77G, the self-cleavage came out at 0.81.

U13C U85C A136G A138G: the self-cleavage was determined as 0.

Consider U13C U91C A107G, for which the self-cleavage stood at 0.

As for U13C U14C A129U, the self-cleavage is 1.22.

Turning to U13C U14G U73A A129U, the self-cleavage worked out at 0.9.

U13C U91A A141U: the self-cleavage stood at 0.58.

In the case of U13C U62C U96G A142G, the self-cleavage came to 0.4.

On to U13C U14C U115A, for which the self-cleavage stood at 1.38.

U13C U100C C128A: the self-cleavage came out at 1.13.

U13C U29A U96A U115C A124U A140G: the self-cleavage was 0.1.

With U13G U46G U85A U102C A141G, the self-cleavage is 0.

With U13C U115C A117U, the self-cleavage was 1.67.

For U13C U20C A50C A79G C128U U132A, the self-cleavage came to 1.38.

For the variant U13C U14C U62C, the self-cleavage worked out at 0.18.

For the variant U13C U23C U47A A57U U112A, the self-cleavage worked out at 0.14.

Regarding U13C U39C A59U U96A, the self-cleavage was 0.07.

As for U13C U85C A107G U130C, the self-cleavage turned out to be 0.2.

With U13C U29C A94G C99A, the self-cleavage turned out to be 0.

For the variant U13C U23C U45C G55U C103U, the self-cleavage amounted to 0.2.

As to U13C U20C A22U A78G A141G, the self-cleavage was 0.89.

As to U13C U20C G32A U39A U81A, the self-cleavage was determined as 1.46.

Consider U13C U26C U39A U52C, for which the self-cleavage is 0.57.

In the case of U13C U96A A129G U132A A138G, the self-cleavage is 0.2.

As to U13C U20C A42G A138U, the self-cleavage turned out to be 1.17.

Turning to U13C U15A U29A, the self-cleavage amounted to 1.1.

As to U13C U15C A79U A117U, the self-cleavage is 1.82.

With U13C U20C U23A, the self-cleavage worked out at 0.23.

In the case of U13C U52A A67G U104G U143C, the self-cleavage was found to be 0.

On to U13G C19U G36A U108G, for which the self-cleavage came to 0.65.

As for U13C U26C G83A A94C U112C A124G, the self-cleavage came to 0.

In the case of U13C U29A U52C U112C C128U, the self-cleavage was determined as 0.68.

For the variant U13C U73C A77U, the self-cleavage was found to be 1.28.

As to U13C U20A U115C U143A, the self-cleavage is 0.

Take U13C U47C U130C: the self-cleavage worked out at 1.46.

Consider U13C U45A U119C A129G, for which the self-cleavage was 0.74.

U13C U26A A42G A142G: the self-cleavage came out at 0.68.

Regarding U13C U73A A117G A141G, the self-cleavage came to 1.59.

For U13C U62C U91C U115C, the self-cleavage came to 1.23.

For U13G U104A C111A, the self-cleavage stood at 1.41.

On to U13C U39C U102A, for which the self-cleavage is 0.85.

For U13C U29C A129G, the self-cleavage turned out to be 1.25.

As for U13C U29C U73A C90A U115C G127U, the self-cleavage is 0.06.

As to U13C U104C G144U, the self-cleavage is 0.77.

Consider U13C U23A U45G G97A, for which the self-cleavage was 0.12.

U13C U62A U73C U112C A138G: the self-cleavage was found to be 0.15.

Turning to U13C U112A A129G A136U A138G, the self-cleavage was 2.12.

For the variant U13G U45A U47A, the self-cleavage was found to be 0.39.

With U13C U29A G93A A94U C118U A140G, the self-cleavage turned out to be 0.07.

As for U13C U23C A64G, the self-cleavage was 0.46.

With U13C U46G A69G, the self-cleavage was determined as 0.5.

Take U13C U45A U46C A50G U96A: the self-cleavage amounted to 0.14.

Regarding U13G A77G U143G, the self-cleavage worked out at 1.67.

For U13C U100A U102A, the self-cleavage came to 0.7.

Turning to U13C U20C U91C A142G, the self-cleavage stood at 0.8.

As for U13C U100C U102C A140G C145A, the self-cleavage worked out at 2.83.

As for U13C U20C U23C U132A, the self-cleavage came out at 0.77.

For the variant U13C U102C U115G U132C, the self-cleavage turned out to be 0.57.

For the variant U13C U23G U85A A136G, the self-cleavage was 0.

As for U13C U47A U73C, the self-cleavage amounted to 1.45.

For U13C U23C A129G, the self-cleavage stood at 1.58.

On to U13C U87C U104A U119C A138G A140U, for which the self-cleavage was 0.

Regarding U13C U47C A129G, the self-cleavage is 2.19.

U13C U26C A30G G80A C84U U96C: the self-cleavage amounted to 0.21.

Regarding U13C U52A U109C, the self-cleavage is 0.97.

With U13C U29A C61U U96C U115C, the self-cleavage was 0.12.

Take U13C U14C A138G A142G: the self-cleavage is 1.62.

Take U13C U81C U119C: the self-cleavage worked out at 0.97.

Turning to U13C U73C U143C, the self-cleavage turned out to be 0.5.

For U13C U73A A78C, the self-cleavage came to 2.13.

Regarding U13C U29C A64U U109C U143C, the self-cleavage stood at 0.76.

As for U13C U62A A94G C128G, the self-cleavage is 0.14.

Consider U13C U14C C131U, for which the self-cleavage came to 1.53.

Turning to U13C U100C C120U, the self-cleavage was determined as 1.88.

As to U13C U23C U87C A124U, the self-cleavage was 0.41.

With U13C U46C U87A, the self-cleavage turned out to be 0.21.

As to U13C U62C A77U U130A, the self-cleavage turned out to be 0.4.

As to U13C U39A U47C U108C, the self-cleavage stood at 2.6.

U13C U39C U87C U134A: the self-cleavage was 0.35.

For U13G A65G A92U G127U, the self-cleavage is 0.

Take U13C U15C C61U: the self-cleavage was determined as 0.09.

Turning to U13C U39A A69U A78U, the self-cleavage worked out at 0.11.

Take U13C U26C C84U A136U: the self-cleavage came out at 0.

On to U13C U23C G53U C76A, for which the self-cleavage worked out at 0.96.

As for U13C U73A U91C, the self-cleavage came to 0.21.

Consider U13C U100C U112A G114A, for which the self-cleavage stood at 2.35.

For U13C U26C G70A, the self-cleavage was 0.05.

With U13C U52C A59G C61G A77U A136G U143A, the self-cleavage worked out at 0.

Turning to U13C U26C G32C A138G A140U, the self-cleavage is 1.1.

Turning to U13C U91G C99A, the self-cleavage amounted to 0.08.

Consider U13C U73C A138U, for which the self-cleavage worked out at 1.67.

In the case of U13C U45C U62C U85A U108C, the self-cleavage is 0.

For U13C U20C A22G U39C, the self-cleavage came to 0.

Take U13C U23C A94G U119C: the self-cleavage worked out at 0.

As to U13C U132C A141G, the self-cleavage was found to be 1.39.

In the case of U13C U46C U62C, the self-cleavage was 0.28.

Take U13C U14C U29C A42U: the self-cleavage was determined as 1.03.

With U13C U14C C38U U46C A140G, the self-cleavage was 0.84.

On to U13G U26C U102A U132C, for which the self-cleavage came to 0.

Regarding U13C U29A A121G, the self-cleavage was 0.88.

Consider U13C U23A A57U, for which the self-cleavage was found to be 0.12.

In the case of U13C U39C A78G, the self-cleavage is 0.67.

With U13C U14C A43U U102A, the self-cleavage came to 1.29.

On to U13C U96C A121G, for which the self-cleavage was found to be 0.29.

For the variant U13C U73G U112C, the self-cleavage stood at 0.19.

With U13C U81C U112C, the self-cleavage worked out at 0.5.

For U13C U15C G32A C84A, the self-cleavage was determined as 0.23.

As to U13C U96C A117G, the self-cleavage worked out at 0.

As to U13C U39A U47C A57U C118U, the self-cleavage was 0.17.

Turning to U13C U112C A129G, the self-cleavage is 0.96.

Regarding U13C U26C C113U, the self-cleavage was found to be 0.81.

U13C U87C U108C: the self-cleavage was 0.86.

For U13C U20C A67G A129G U143C, the self-cleavage was 0.77.

For U13C U15C A59G A141G, the self-cleavage came out at 0.49.

For U13C U62A A77G U96A U102A C133U, the self-cleavage amounted to 0.

In the case of U13G A50C U91C A117U U132C, the self-cleavage was found to be 1.38.

Regarding U13C U23C A141G, the self-cleavage is 0.6.

U13C U85A U112C: the self-cleavage is 0.08.

Take U13C U29C U109C: the self-cleavage came out at 0.57.

U13C U91C A140U: the self-cleavage was 1.38.

With U13C U29C U102A A124U, the self-cleavage came to 0.69.

U13C U20A U81A G82A: the self-cleavage was 2.73.

As for U13C U39A A57U U115C, the self-cleavage stood at 0.24.

Turning to U13C U115A G125A A140G, the self-cleavage was 1.21.

For the variant U13C U39A U81A A141G, the self-cleavage stood at 2.1.

As to U13C U39C A69U, the self-cleavage came out at 0.07.

As for U13C U39A U46C, the self-cleavage came out at 1.06.

Take U13C U96C A141G: the self-cleavage was determined as 0.34.

As for U13G A77G C131U, the self-cleavage turned out to be 1.3.

In the case of U13C U26A U87C U102C, the self-cleavage is 0.35.

For U13C U15A A65U A69G, the self-cleavage amounted to 0.13.

For U13G U96A A117G U134A, the self-cleavage was found to be 0.19.

In the case of U13C U62C G82A A107G, the self-cleavage is 0.

U13C U62C U132A: the self-cleavage came out at 0.

On to U13C U73C A129U, for which the self-cleavage was 1.08.

For U13C U15C U91C, the self-cleavage is 0.27.

On to U13C U45A U100C U108C, for which the self-cleavage is 1.69.

As for U13C U39G A129G, the self-cleavage was determined as 1.06.

With U13C U29C U45C U119A, the self-cleavage came to 1.08.

U13C U20C A57G C99U: the self-cleavage was found to be 0.48.

U13C U20C A64U A141U: the self-cleavage is 0.89.

Regarding U13C U23A U100C, the self-cleavage came to 0.42.

U13C U47A U62A U81C: the self-cleavage stood at 0.21.

U13C U14G G36A A65G A142G: the self-cleavage is 0.17.

For U13C U29A G53U A59G A64G A78G U85C, the self-cleavage was 0.

U13C U15C U45G C90U U109C: the self-cleavage was 0.09.

Consider U13C U29C U46C U112C, for which the self-cleavage came out at 0.97.

For the variant U13C U73C A94G, the self-cleavage amounted to 0.48.

In the case of U13C U112C A124U U134A, the self-cleavage turned out to be 0.69.
